Experimental data reported in PMC11696352.
Positions count from the first letter of the chain named. Like-named read-outs stand apart in the source and are kept apart here. Results are given in words; binding and its absence hold for the method and conditions named. For some assays here: Binding seen in cells or lysates may run through a third protein. Some binding calls cover weakened binding; strength is not graded here. For some assays here: Tags and fused reporters may be left off the sequences shown. Each block holds one molecule with its values, some of them ahead of it.

The chains behind the UniProt entries cited, without tags or fusion partners. Residues count along the entry.
UniProt Q04206: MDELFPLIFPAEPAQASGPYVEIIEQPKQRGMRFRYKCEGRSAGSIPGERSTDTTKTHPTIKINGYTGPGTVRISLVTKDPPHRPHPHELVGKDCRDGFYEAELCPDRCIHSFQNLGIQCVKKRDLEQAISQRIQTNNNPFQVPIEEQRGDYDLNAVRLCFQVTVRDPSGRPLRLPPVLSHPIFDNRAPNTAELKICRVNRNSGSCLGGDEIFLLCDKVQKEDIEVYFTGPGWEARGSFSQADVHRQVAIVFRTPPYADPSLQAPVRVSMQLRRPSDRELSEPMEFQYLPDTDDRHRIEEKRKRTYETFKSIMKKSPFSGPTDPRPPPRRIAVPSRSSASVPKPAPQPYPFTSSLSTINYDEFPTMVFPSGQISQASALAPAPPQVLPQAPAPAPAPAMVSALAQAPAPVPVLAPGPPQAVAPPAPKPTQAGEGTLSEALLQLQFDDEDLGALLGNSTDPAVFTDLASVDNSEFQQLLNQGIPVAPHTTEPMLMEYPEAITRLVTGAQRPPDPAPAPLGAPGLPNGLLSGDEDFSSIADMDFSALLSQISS
UniProt P19838, residues 1-433: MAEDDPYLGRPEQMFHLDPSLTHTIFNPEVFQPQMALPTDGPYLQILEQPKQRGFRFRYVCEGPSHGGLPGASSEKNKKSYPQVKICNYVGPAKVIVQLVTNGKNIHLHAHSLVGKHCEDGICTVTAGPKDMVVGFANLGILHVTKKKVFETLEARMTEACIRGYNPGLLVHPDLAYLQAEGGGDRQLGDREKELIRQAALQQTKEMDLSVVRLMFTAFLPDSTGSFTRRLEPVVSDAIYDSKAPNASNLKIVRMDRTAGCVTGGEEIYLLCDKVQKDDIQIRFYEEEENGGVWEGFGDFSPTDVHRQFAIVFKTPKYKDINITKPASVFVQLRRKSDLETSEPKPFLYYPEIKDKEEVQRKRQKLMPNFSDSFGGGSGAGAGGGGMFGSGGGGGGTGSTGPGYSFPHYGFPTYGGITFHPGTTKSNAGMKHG
UniProt P52294: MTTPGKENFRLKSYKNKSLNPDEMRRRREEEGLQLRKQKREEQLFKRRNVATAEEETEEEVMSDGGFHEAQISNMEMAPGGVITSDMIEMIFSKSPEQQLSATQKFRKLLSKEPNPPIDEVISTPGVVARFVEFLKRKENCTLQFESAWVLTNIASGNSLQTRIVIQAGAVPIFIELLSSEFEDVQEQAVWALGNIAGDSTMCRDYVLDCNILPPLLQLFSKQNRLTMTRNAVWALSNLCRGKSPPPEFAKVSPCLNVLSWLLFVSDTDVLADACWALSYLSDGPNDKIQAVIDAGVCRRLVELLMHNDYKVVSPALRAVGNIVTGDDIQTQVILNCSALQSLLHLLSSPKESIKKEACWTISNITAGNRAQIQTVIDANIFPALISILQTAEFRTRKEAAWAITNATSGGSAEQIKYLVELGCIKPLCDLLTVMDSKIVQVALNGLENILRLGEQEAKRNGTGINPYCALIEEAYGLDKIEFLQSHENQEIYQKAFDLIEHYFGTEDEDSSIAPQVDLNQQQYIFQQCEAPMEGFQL

Tests used:
[1] = target: T1, Flag-tagged GCLM T17E mutant (UniProt P48507); assay: co-IP; anti-Flag immunoprecipitation from total lysate or cytoplasmic and nuclear fractions of 293T or HCT116 cells overexpressing Flag-tagged GCLM WT, GCLM-NLS or mutants; with or without oxaliplatin or importazole (40 μM, 24 h)
T1 sequence: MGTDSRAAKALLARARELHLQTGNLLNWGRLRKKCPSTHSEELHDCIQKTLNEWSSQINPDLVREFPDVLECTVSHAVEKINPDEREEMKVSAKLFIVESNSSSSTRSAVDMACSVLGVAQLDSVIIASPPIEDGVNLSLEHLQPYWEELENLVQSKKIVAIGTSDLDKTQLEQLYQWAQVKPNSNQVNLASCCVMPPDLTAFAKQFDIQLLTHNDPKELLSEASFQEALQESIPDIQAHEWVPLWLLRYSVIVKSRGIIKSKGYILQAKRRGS

[2] = target: T2, Flag-tagged GCLM WT (glutamate-cysteine ligase modifier subunit) (UniProt P48507); assay: as above
T2 sequence: T1 sequence with E17T

[3] = target: T3, GCLM (glutamate-cysteine ligase modifier subunit), endogenous (human (endogenous in HCT116 and 293T)) (UniProt P48507); assay: co-IP; endogenous proteins; anti-GCLM antibody or IgG with protein A/G beads overnight at 4 °C; cells with or without oxaliplatin, cisplatin or kinase inhibitors
T3 sequence: T1 sequence with E17T

[4] = target: T3, GCLM (glutamate-cysteine ligase modifier subunit), endogenous (human (endogenous in HCT116 and 293T)); assay: condition: only with calf intestinal phosphatase (CIP) treatment; co-IP; GCLM immunoprecipitated from HCT116 cells treated with calf intestinal phosphatase (CIP), which resulted in GCLM dephosphorylation
[5] = target: p65 (NF-κB/p65) (human (endogenous in HCT116 and 293T)) (UniProt Q04206); assay: co-IP; p65 with p50 in control or GCLM-knockdown HCT116 or 293T cells overexpressing HA-tagged NKRF, oxaliplatin (40 μM, 24 h); which of the two was precipitated is not stated
HA-tagged NKRF WT [6] = target: T4, HA-tagged NKRF WT (UniProt O15226); assay: co-IP; HA-tagged NKRF WT or truncated mutants (M1-M5) overexpressed in 293T or HCT116 cells (control or GCLM knock-down, oxaliplatin 40 μM, 24 h); anti-HA immunoprecipitation
T4 sequence: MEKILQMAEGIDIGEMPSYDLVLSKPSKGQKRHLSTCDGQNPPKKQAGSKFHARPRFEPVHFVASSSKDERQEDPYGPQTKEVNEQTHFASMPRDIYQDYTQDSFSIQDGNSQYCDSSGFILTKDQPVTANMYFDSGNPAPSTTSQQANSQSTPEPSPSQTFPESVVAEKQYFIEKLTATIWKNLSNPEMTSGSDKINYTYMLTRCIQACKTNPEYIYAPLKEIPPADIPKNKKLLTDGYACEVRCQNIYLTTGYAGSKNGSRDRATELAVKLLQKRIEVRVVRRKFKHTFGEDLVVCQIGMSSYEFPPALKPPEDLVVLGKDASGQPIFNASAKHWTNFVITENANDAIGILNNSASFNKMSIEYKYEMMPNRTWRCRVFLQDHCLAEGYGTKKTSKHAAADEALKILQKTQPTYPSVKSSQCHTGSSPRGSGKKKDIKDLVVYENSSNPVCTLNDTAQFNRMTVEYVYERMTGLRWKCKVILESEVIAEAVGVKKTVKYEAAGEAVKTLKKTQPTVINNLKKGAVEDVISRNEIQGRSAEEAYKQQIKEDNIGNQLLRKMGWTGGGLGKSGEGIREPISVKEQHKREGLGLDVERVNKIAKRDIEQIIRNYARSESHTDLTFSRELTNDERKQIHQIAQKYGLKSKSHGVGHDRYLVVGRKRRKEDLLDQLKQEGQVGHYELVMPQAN

[7] = target: T1, Flag-tagged GCLM T17E mutant; assay: co-IP; anti-Flag immunoprecipitation from total lysate or cytoplasmic and nuclear fractions of 293T or HCT116 cells overexpressing Flag-tagged GCLM WT, GCLM-NLS or mutants; with or without oxaliplatin or importazole (40 μM, 24 h); remark: listed apart in the source
[8] = target: T2, Flag-tagged GCLM WT (glutamate-cysteine ligase modifier subunit); assay: as above; remark: listed apart in the source
GCLM C193/194 A mutant = target: T5, GCLM C193/194 A mutant (UniProt P48507); assay: as above
T5 sequence: T1 sequence with E17T, C193A, C194A

[9] = target: T2, Flag-tagged GCLM WT (glutamate-cysteine ligase modifier subunit); assay: proximity ligation; Duolink in situ PLA with anti-Flag-GCLM and anti-NKRF antibodies in 293T cells overexpressing Flag-tagged GCLM WT or nuclear GCLM (+NLS)
[10] = target: T3, GCLM (glutamate-cysteine ligase modifier subunit), endogenous (human (endogenous in HCT116 and 293T)); assay: co-IP; endogenous proteins; anti-GCLM antibody or IgG with protein A/G beads overnight at 4 °C; cells with or without oxaliplatin, cisplatin or kinase inhibitors; remark: listed apart in the source
purified GST-GCLM = target: T6, purified GST-GCLM (UniProt P48507); assay: pull-down; 20 µg GST-GCLM or GST control on Glutathione Sepharose 4B beads (1 h, 4 °C), 10 µg His-NKRF added for 2 h at 4 °C, washed with PBST five times, immunoblot; both purified
T6 sequence: T1 sequence with E17T

HA-tagged NKRF WT [11] = target: T4, HA-tagged NKRF WT; assay: co-IP; HA-tagged NKRF WT or truncated mutants (M1-M5) overexpressed in 293T or HCT116 cells (control or GCLM knock-down, oxaliplatin 40 μM, 24 h); anti-HA immunoprecipitation; remark: listed apart in the source

Molecule: p50 (NF-κB p50) (from UniProt P19838 1-433)
- binding [5]: binds

Molecule: p65 (NF-κB/p65) (from UniProt Q04206 1-551)
- binding (HA-tagged NKRF WT [6]): binds

B3: GCLM (glutamate-cysteine ligase modifier subunit), endogenous (protein, UniProt P48507 1-274)
chain: T1 sequence with E17T
- binding (HA-tagged NKRF WT [11]): binds

The next lines start with the values.

- binding [1]: binds
- binding [2]: binds
- binding [3]: binds
- binding [4]: no binding
Molecule: importin α5 (also known as KPNA1), endogenous (from UniProt P52294 1-538)

- binding [7]: binds
- binding [8]: binds
- binding (GCLM C193/194 A mutant): binds
- binding [9]: binds
- binding [10]: binds
- binding [4]: no binding
B1: NF-κB-repressing factor (NKRF), endogenous (protein, UniProt O15226 1-690)
chain: T4 sequence

- binding (purified GST-GCLM): binds
B2: purified His-NKRF (protein, UniProt O15226 1-690)
chain: T4 sequence
